# PubChem BioAssay AID504937 (National Center for Advancing Translational Sciences (NCATS), 2011)
# About 20 (0.006%) of roughly 340,000 compounds were called active. Inconclusive results, whose numbers are uncertain, are shown with a selection of clear calls. Calls come from the whole dose curve; as a rule, active = well fitted inhibition curve with a large enough effect; inconclusive = small, poorly fitted or top-dose-only effect; inactive = no such curve, though single readings can be large or run the other way. Where the call is inconclusive, the potency comes from a doubtful curve fit.
# Target: Sphingomyelin phosphodiesterase (Homo sapiens) (UniProt P17405)
# Sequence of UniProt P17405 (P17405 whole entry, looked up): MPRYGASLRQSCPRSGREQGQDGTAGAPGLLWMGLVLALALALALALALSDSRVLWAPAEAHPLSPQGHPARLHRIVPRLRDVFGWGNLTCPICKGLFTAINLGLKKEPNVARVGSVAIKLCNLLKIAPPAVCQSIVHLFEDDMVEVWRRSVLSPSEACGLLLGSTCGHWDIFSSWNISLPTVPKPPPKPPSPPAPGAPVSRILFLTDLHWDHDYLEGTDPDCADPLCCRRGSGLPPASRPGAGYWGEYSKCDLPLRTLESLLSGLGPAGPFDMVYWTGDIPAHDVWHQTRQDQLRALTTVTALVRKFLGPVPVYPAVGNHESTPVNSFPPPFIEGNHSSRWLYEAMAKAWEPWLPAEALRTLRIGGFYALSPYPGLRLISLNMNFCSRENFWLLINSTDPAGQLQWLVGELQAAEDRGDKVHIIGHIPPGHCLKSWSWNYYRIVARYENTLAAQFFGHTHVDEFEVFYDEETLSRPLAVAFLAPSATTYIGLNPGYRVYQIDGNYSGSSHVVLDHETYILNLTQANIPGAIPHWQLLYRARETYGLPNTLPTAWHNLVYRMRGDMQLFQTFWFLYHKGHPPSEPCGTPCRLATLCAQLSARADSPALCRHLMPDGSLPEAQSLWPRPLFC
# Assay: Inhibitors of Secretory Acid Sphingomyelinase (S-ASM): qHTS
# Conditions: placental ASM, HMU-PC fluorogenic substrate (series up to 57.5 µM), 60 min
# In short: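 Steps: dispense placental human ASM, pin compound, wait 10 min at room temperature, add HMU-PC0 substrate at 9 uM final, incubate 60 min at 37 °C, add stop solution raising pH to 10, read fluorescence.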
# Potency is the fitted concentration of half-maximal effect; tags give direction and shape of the fitted curve.
row,Structure (SMILES),Potency
1,CCCCC1CCC(C(=O)OCC(=O)Nc2ccc(S(N)(=O)=O)cc2)CC1 (stereo unspecified),"inconclusive: 89.1 µM [inhibitor, single point]"
2,CC(=O)Oc1ccc(C2(C)CC(C)(C)Oc3cc(OC(C)=O)ccc32)c(OC(C)=O)c1 (stereo unspecified),"inconclusive: 112 µM [inhibitor, partial curve, poor fit]"
3,COCCCn1c(SCCc2ccccc2)nc2cc(OC)c(OC)cc2c1=N,"inconclusive: 112 µM [inhibitor, partial curve, poor fit]"
4,CC(=O)Nc1cccc(NC(=O)/C=C/c2ccc(S(=O)(=O)N3CCOCC3)cc2)c1,inactive
5,COc1ccc(COc2cc(-c3cccc(OC)c3)nc3ccc(NC(=O)c4ccccc4)cc23)cc1,"inconclusive: 31.6 µM [inhibitor, partial curve, poor fit]"
6,O=C(Nc1ccc2nc(C3CC3)n(Cc3ccc(F)cc3)c(=O)c2c1)c1ccco1,"inconclusive: 56.2 µM [inhibitor, partial curve, poor fit]"
7,Cc1cccc(NC(=O)c2nc[nH]c2C(=O)N[C@@H](C)c2ccccc2)c1,inactive
8,COc1ccc(NC(=O)CSc2nnc(Cn3cnc4ccccc43)o2)cc1,"inconclusive: 100 µM [inhibitor, partial curve, poor fit]"
9,COc1ccc(Cn2nnnc2CN2CCC(c3nc4ccccc4s3)CC2)cc1,"inconclusive: 200 µM [inhibitor, partial curve, poor fit]"
10,C#CCOCCOCCOCCNc1nc(N2CCN(C(=O)CCCCCCCCCCNC(=O)[C@H](CCCCN)n3cc(C[C@@H](C)CC)nn3)CC2)nc(N2CCN(C(=O)CCCCCCCCCCNC(=O)[C@H](CCCN=C(N)N)n3cc(C[C@@H](C)CC)nn3)CC2)n1,"inconclusive: 79.4 µM [inhibitor, single point]"
11,O=C(O)CCCCCN1C(=O)/C(=C/c2cn(-c3ccccc3)nc2-c2cccs2)SC1=S,"inconclusive: 501 µM [inhibitor, partial curve, poor fit]"
12,O=C1N=c2ccccc2=C1c1sc(=S)n(NC(=O)c2cccc(O)c2)c1O,"inconclusive: 56.2 µM [inhibitor, single point]"
13,Cc1ccccc1C(=O)NC(=S)Nc1sc2c(c1C#N)CCCC2,"inconclusive: 1580 µM [inhibitor, partial curve, poor fit]"
14,CSc1ccc(C(c2c(C(=O)O)[nH]c3ccccc23)c2c(C(=O)O)[nH]c3ccccc23)cc1,"inconclusive: 50.1 µM [inhibitor, partial curve]"
15,CCCCCCCCCCCC(=O)N1CC(=O)NC(=O)C1,"inconclusive: 112 µM [inhibitor, partial curve]"
16,COc1ccc(-c2[nH]c(-c3ccc4c(c3)OCO4)nc2-c2ccccc2)cc1,"inconclusive: 100 µM [inhibitor, partial curve, poor fit]"
17,CC(C)N(C(=O)CSc1nc(COc2ccccc2)nc2ccccc12)C(C)C,"inconclusive: 447 µM [inhibitor, partial curve, poor fit]"
18,Cc1sc2ncnc(N3CCC(C(=O)Nc4nc(-c5cccs5)cs4)CC3)c2c1C,"inconclusive: 282 µM [inhibitor, partial curve, poor fit]"

row,Structure (SMILES),Potency
1,CCCCCCOc1ccc(/C(C)=N/NC2=NCCN2)cc1,"inconclusive: 141 µM [inhibitor, partial curve, poor fit]"
2,COc1ccc(OCc2nn3c(Cn4cnc5ccccc54)nnc3s2)cc1,"inconclusive: 251 µM [inhibitor, partial curve, poor fit]"
3,CCCC(=O)Nc1nn(CCC)c2nc3ccccc3cc12,inactive
4,Cc1ccc(N2C(SCC(=O)O)=NC(=Nc3cccc(C)c3)C23CCCC3)cc1,inactive
5,Cc1ccc(C)n1-c1ccc(NC(=O)c2ccccc2)cc1,inactive
6,CCCCCc1ccc(CC(=O)Nn2c(C)nc3ccccc3c2=O)cc1,"inconclusive: 100 µM [inhibitor, partial curve, poor fit]"
7,CCCCOc1ccc(C(=O)Nc2ccc(OCC(=O)N3CCOCC3)cc2)cc1,inactive
8,Cc1ccc(NC(=O)c2cccc(OCc3c(C)noc3C)c2)cc1S(=O)(=O)Nc1ccccc1Cl,"inconclusive: 2510 µM [inhibitor, partial curve, poor fit]"
9,O=C1N=c2ccccc2=C1c1sc(Nc2ccc(O)cc2)nc1O,"inconclusive: 56.2 µM [inhibitor, partial curve]"
10,N#CCc1c(C#N)c(N)nc(N2CCN(c3ccc(F)cc3)CC2)c1C#N,"inconclusive: 89.1 µM [inhibitor, single point]"
11,COc1ccc2nc(NC(=O)C3CCN(S(=O)(=O)c4cccs4)CC3)sc2c1,"inconclusive: 224 µM [inhibitor, partial curve, poor fit]"
12,O=C(CSCC(=O)N1CCCCC1)Nc1nc(-c2ccccc2)c(-c2ccccc2)s1,"inconclusive: 891 µM [inhibitor, partial curve, poor fit]"
13,C=CCn1cc(/C=N/Nc2nc3ccccc3[nH]2)c2ccccc21,"inconclusive: 79.4 µM [inhibitor, single point]"
14,COc1ccc(NC(=O)N(C)C[C@H]2Oc3c(NC(=O)Nc4ccc(C(F)(F)F)cc4)cccc3C(=O)N([C@H](C)CO)C[C@@H]2C)cc1,"inconclusive: 112 µM [inhibitor, partial curve]"
15,CC(C)=CCc1c2c(c(O)c3c(=O)c4c(oc13)-c1cc(O)c(O)cc1OC4C=C(C)C)C=CC(C)(C)O2 (stereo unspecified),"inconclusive: 398 µM [inhibitor, partial curve, poor fit]"
16,CSc1ccc(NC(=O)N2CCN(c3nc4ccccc4s3)CC2)cc1,"inconclusive: 100 µM [inhibitor, partial curve, poor fit]"
17,CC1CC(C)CN(c2nc(N(C)c3ccccc3)nc(N)c2[N+](=O)[O-])C1 (stereo unspecified),"inconclusive: 251 µM [inhibitor, partial curve, poor fit]"
18,O=C(c1cc(-c2ccc3c(c2)OCO3)on1)N1CCN(c2ccc(F)cc2)CC1,"inconclusive: 4470 µM [inhibitor, partial curve, poor fit]"
